The list shows a part of the results.
Legend:
Experiment in all cases: glycan array binding signal (z-score within array); higher = stronger binding
Conditions in all cases: glycan notation: IUPAC condensed, linker removed; mutation: Y228A
[1] = target: Man(a1-2)Man(a1-3)[Man(a1-2)Man(a1-6)]Man
In short: (§1)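 Glycan array binding is given as a within-array Z-score, which can be read as non-binding when negative. The arrays, 3228 of them, came from the Consortium for Functional Glycomics database and were retained only where the protein sequence was available. Z-scores were averaged across arrays of the same protein sequence at different concentrations or buffers and across linkers.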

[2] = target: Man(a1-2)Man(a1-3)[Man(a1-2)Man(a1-6)]Man(a1-6)[Man(a1-2)Man(a1-2)Man(a1-3)]Man
In short: as §1

[3] = target: Man(a1-2)Man(a1-3)[Man(a1-2)Man(a1-6)]Man(a1-6)[Man(a1-2)Man(a1-2)Man(a1-3)]Man(b1-4)GlcNAc(b1-4)GlcNAc
In short: as §1

[4] = target: Man(a1-2)Man(a1-3)[Man(a1-6)]Man(a1-6)[Man(a1-2)Man(a1-3)]Man(b1-4)GlcNAc(b1-4)GlcNAc
In short: as §1

[5] = target: Man(a1-2)Man(a1-6)[Man(a1-3)]Man(a1-6)[Man(a1-2)Man(a1-2)Man(a1-3)]Man
In short: as §1

[6] = target: Man(a1-2)Man(a1-6)[Man(a1-3)]Man(a1-6)[Man(a1-2)Man(a1-2)Man(a1-3)]Man(b1-4)GlcNAc(b1-4)GlcNAc
In short: as §1

[7] = target: Man(a1-3)[Man(a1-6)]Man
In short: as §1

[8] = target: Man(a1-3)[Man(a1-6)]Man(a1-6)[Man(a1-2)Man(a1-3)]Man(b1-4)GlcNAc(b1-4)GlcNAc
In short: as §1

[9] = target: Man(a1-3)[Man(a1-6)]Man(a1-6)[Man(a1-3)]Man
In short: as §1

[10] = target: Man(a1-3)[Man(a1-6)]Man(a1-6)[Man(a1-3)]Man(b1-4)GlcNAc(b1-4)GlcNAc
In short: as §1

[11] = target: Man(a1-3)[Man(a1-6)]Man(b1-4)GlcNAc(b1-4)GlcNAc
In short: as §1

[12] = target: Man(a1-3)[Man(a1-6)]Man(b1-4)GlcNAc(b1-4)[Fuc(a1-6)]GlcNAc
In short: as §1

[13] = target: Man(a1-6)Man
In short: as §1

[14] = target: Man(b1-4)GlcNAc
In short: as §1

[15] = target: MurNAc(b1-4)GlcNAc
In short: as §1

[16] = target: Neu5Ac(a2-3)Gal
In short: as §1

[17] = target: Neu5Ac(a2-3)Gal(b1-3)GalNAc
In short: as §1

[18] = target: Neu5Ac(a2-3)Gal(b1-3)GalNAc(b1-3)Gal(a1-4)Gal(b1-4)Glc
In short: as §1

[19] = target: Neu5Ac(a2-3)Gal(b1-3)GalNAc(b1-4)Gal(b1-4)Glc
In short: as §1

[20] = target: Neu5Ac(a2-3)Gal(b1-3)GalNAc(b1-4)[Neu5Ac(a2-3)]Gal(b1-4)Glc
In short: as §1

[21] = target: Neu5Ac(a2-3)Gal(b1-3)GalNAc(b1-4)[Neu5Ac(a2-8)Neu5Ac(a2-3)]Gal(b1-4)Glc
In short: as §1

[22] = target: Neu5Ac(a2-3)Gal(b1-3)GalNAc6S
In short: as §1

[23] = target: Neu5Ac(a2-3)Gal(b1-3)GlcNAc
In short: as §1

[24] = target: Neu5Ac(a2-3)Gal(b1-3)GlcNAc(b1-2)Man
In short: as §1

[25] = target: Neu5Ac(a2-3)Gal(b1-3)GlcNAc(b1-2)Man(a1-3)[GlcNAc(b1-4)][Neu5Ac(a2-3)Gal(b1-3)GlcNAc(b1-2)Man(a1-6)]Man(b1-4)GlcNAc(b1-4)GlcNAc
In short: as §1

[26] = target: Neu5Ac(a2-3)Gal(b1-3)GlcNAc(b1-2)Man(a1-3)[Neu5Ac(a2-3)Gal(b1-3)GlcNAc(b1-2)Man(a1-6)]Man(b1-4)GlcNAc(b1-4)GlcNAc
In short: as §1

[27] = target: Neu5Ac(a2-3)Gal(b1-3)GlcNAc(b1-2)[Neu5Ac(a2-3)Gal(b1-3)GlcNAc(b1-4)]Man(a1-6)[Neu5Ac(a2-3)Gal(b1-3)GlcNAc(b1-2)Man(a1-3)]Man(b1-4)GlcNAc(b1-4)GlcNAc
In short: as §1

[28] = target: Neu5Ac(a2-3)Gal(b1-3)GlcNAc(b1-3)Gal(b1-3)GlcNAc
In short: as §1

[29] = target: Neu5Ac(a2-3)Gal(b1-3)GlcNAc(b1-3)Gal(b1-4)GlcNAc
In short: as §1

[30] = target: Neu5Ac(a2-3)Gal(b1-3)GlcNAc(b1-3)GalNAc
In short: as §1

B1: Epa1-NP-mutant-Y228A (Candida glabrata), Q6VBJ0 (protein)
chain: MILNPALFLNKCVCIYTTLILLLLTNGGYATSSNDISLASKDPTTFPLGCSPDITTPKKGLSMELYSYDFRKKGSYPCWDAAYLDPNYPRTGYKSHRLLAKVDGVTGNINFYYHATKGCTPQLGHLPASYNYPKPLTMTNFTMLLYGYFRPKVTGFHTFTISADDLLFVNFGAGNAFDCCRRDSSADHFGNYQAYAIWGSKTAKDELTVHLDAGVYYPIRLFYNNREADGALSFTFKTESNENTVSDFSEYFFSLDDTEEGCPGLISYDSSCASVKTSKIIGIDYHTETPNENLVPITKTIYHLGIPCTGTTTTPLCGSGFYDPLANKCVTINTSSTSSVTKTTSHTTSKEVSFHSSISSQKTLIPKSIPSPYGPIKSQSIPTEMETSSEISSSEYAFSDVISTPSHSPYTKKHSSLNSSSYTSTVIHSLTSYSISQGIFSTSLSEQNITSKSSTDKFSTATSMSNNITQSSIIISQFSTNNENYTTTSMHTSSDKISTETLNNSISTTTSILFSNSSTILKNNTTIISSDKDTHYHPVNPTIVCSTNKTEIICASITQPSISNSNNHWSSSVLKFNSTTVRSTLPSSAGSNETSINVPFSSSTESNTSTSSTSTSNSKMVRSTLPSSAGSNETSISVPFSSSTESNTSTSSTSTSNSKMVRSTLPSSAGSNETSINVPFSSSTESNTSTSSTSTSNSKTVRSTPFSSAGIIMTSLSQRNNKSASSYASSNSKCYNTADSCRKVHSTPSYLLTSSYTSEGVDYDCSLVSTKLKINDTNCVNNKHTTKSCLKTSVTTTIPTLEIKTARKSSSNTIGLHSYPTSSPNKSISSAPIIGYISSFKTIKTASPSYQTSDLTTITTITSLNNPGSTAVENTHESNDKSRKTSSNDISSKHSVIKETKDAVESSNKSHQTNTLKCSSIIIASSSHNSYESLGGTTLTLTLSKVYSPQNNDTLPFLEISEVNPSRTVLPESSKMMQYLTSTEERNKTARNTIATNIVSISTFHFEGEGNAIRMGYTQLLLMLIGIIVMNIGT
[1]
  glycan array binding signal (z-score): -0.117
[2]
  glycan array binding signal (z-score): -0.302
[3]
  glycan array binding signal (z-score): -0.389
[4]
  glycan array binding signal (z-score): -0.291
[5]
  glycan array binding signal (z-score): -0.215
[6]
  glycan array binding signal (z-score): -0.23
[7]
  glycan array binding signal (z-score): -0.255
[8]
  glycan array binding signal (z-score): -0.126
[9]
  glycan array binding signal (z-score): -0.287
[10]
  glycan array binding signal (z-score): -0.219
[11]
  glycan array binding signal (z-score): -0.161
[12]
  glycan array binding signal (z-score): -0.064
[13]
  glycan array binding signal (z-score): -0.192
[14]
  glycan array binding signal (z-score): -0.188
[15]
  glycan array binding signal (z-score): -0.126
[16]
  glycan array binding signal (z-score): -0.247
[17]
  glycan array binding signal (z-score): -0.298
[18]
  glycan array binding signal (z-score): -0.275
[19]
  glycan array binding signal (z-score): -0.014
[20]
  glycan array binding signal (z-score): -0.242
[21]
  glycan array binding signal (z-score): -0.09
[22]
  glycan array binding signal (z-score): -0.313
[23]
  glycan array binding signal (z-score): -0.167
[24]
  glycan array binding signal (z-score): -0.265
[25]
  glycan array binding signal (z-score): -0.266
[26]
  glycan array binding signal (z-score): -0.12
[27]
  glycan array binding signal (z-score): 0.002
[28]
  glycan array binding signal (z-score): -0.295
[29]
  glycan array binding signal (z-score): -0.327
[30]
  glycan array binding signal (z-score): -0.243

Reference: the supplement of paper PMC8728848
